# From PubChem BioAssay (Tox21)
# The shares of active, inactive and inconclusive entries below differ from those in the screen. For part of these data: No potency is given beside an inconclusive call; the fits are too rough. Calls of active or inactive are those of the source. Unless noted, calls come from the whole dose curve; as a rule, active = well fitted curve in the direction sought with a large enough effect in the repeat runs; inconclusive = weak or mixed curves; inactive = no such curve, though single readings can be large; an effect the other way counts as inactive or inconclusive.
# What was measured:
# [1] = qHTS assay for small molecule agonists of the antioxidant response element (ARE) signaling pathway - cell viability counter screen (AID 743203; calls by dose curve; note: nearly all actives have a fitted effect of over 55% in size); details: ARE-bla HepG2 viability, CellTiter-Glo luminescence, 16 h; viability change, negative = cytotoxic: at 73.3 µM (top of the series)
# Summary of the method: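 Cells (ARE-bla HepG2, 2,000/well) receive DMSO-dissolved compounds after a 5 hrs rest. Plates incubate 16 hrs at 37C/5% CO2. CellTiter-Glo luminescence is then recorded after 30 min at room temperature.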
# [2] = A CellTox Green Cytotoxicity Assay to monitor cytotoxicity in HepG2 cells - 8 hour (AID 1224890); note: nearly all actives have a fitted effect of over 45% in size
# Summary of the method: (§1)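 Continuous culture of HepG2 cells with a membrane-impermeant DNA dye; rising fluorescence marks dead cells. Compound exposure lasted up to 40 h at 37 C, with reads every 8 h from 0 h.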
# [3] = biological target: Thyrotropin receptor (Homo sapiens) (UniProt P16473); test: qHTS assay to identify small molecule antagonists of the thyroid stimulating hormone receptor (TSHR) signaling pathway (AID 1259385; calls by dose curve; note: nearly all actives have a fitted effect of over 20% in size); details: TSHR-HEK293 cAMP HTRF, TSH-stimulated antagonist mode; activity change, negative = inhibition: at 92.4 µM (top of the series) unless noted
# Summary of the method: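 TSHR-HEK293 cells were plated and held 18 h at 37C/5% CO2, then given compound plus Ro20-1724 and stimulated with TSH at 1.5 ng/mL final. After 30 min at room temperature, cAMP was detected with cAMP-d2/anti-cAMP-cryptate (1 h) by fluorescence.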
# [4] = qHTS assay to identify small molecule agonists of the TGF-beta/Smad signaling pathway (AID 1346859; active = well fitted activation curve with a large enough effect in the signal ratio in the repeat runs, not every such curve was filed as active; inconclusive = weak or mixed curves; the % refers to the signal ratio)
# Summary of the method: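 Stable Smad binding element-beta-lactamase HEK 293T cells; 5 hr compound exposure at 37 C under 5% CO2; 2 hr room-temperature substrate step; fluorescence excited at 405 nm, collected at 460 nm and 530 nm.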
# [5] = qHTS assay for small molecule activators of the heat shock response signaling pathway - cell viability counter screen (AID 743209); details: HSE-bla HeLa viability, CellTiter-Glo luminescence, 5 h; activity change, negative = cytotoxicity: at 62.6 µM (top of the series) unless noted; note: nearly all actives have a fitted effect of over 50% in size; note: potency is the fitted concentration of half-maximal effect
# Summary of the method: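 Quantitative HTS format, Tox21 10K library. HeLa cells carrying an HSE-driven beta-lactamase reporter were treated 5 h at 37 C, then assessed for viability by CellTiter-Glo luminescence.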
# [6] = biological target: Bile acid receptor (Homo sapiens) (UniProt Q96RI1); test: qHTS assay to identify small molecule agonists of the farnesoid-X-receptor (FXR) signaling pathway (AID 743220; active = well fitted activation curve with a large enough effect in the signal ratio in the repeat runs, not every such curve was filed as active; inconclusive = weak or mixed curves, or effect the other way; the % refers to the signal ratio; note: potency is the fitted concentration of half-maximal effect); details: HEK293T FXR-UAS-bla, beta-lactamase FRET ratio, 16 h; activation: at 62.6 µM (top of the series) unless noted
# Summary of the method: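 Beta-lactamase reporter under UAS control in GeneBLAzer FXR HEK 293T cells (5000/well) measured with LiveBLAzer FRET substrate after 2 h at room temperature. Compound exposure lasted 16 h at 37C.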
# [7] = A CellTox Green Cytotoxicity Assay to monitor cytotoxicity in HepG2 cells - 32 hour (AID 1224883); note: nearly all actives have a fitted effect of over 50% in size
# Summary of the method: as §1
# [8] = qHTS assay to identify small molecule antagonists of the estrogen receptor beta (ER-beta) signaling pathway - cell viability counter screen (AID 1259382);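 note: HEK293T cells carrying ER-beta-UAS-bla reporter stimulated with estradiol; nearly all actives have a fitted effect of over 55% in size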
# Summary of the method: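 Tox21 10K library tested in qHTS format on ER-beta-bla HEK293T cells stimulated with 1nM E2; 16 hr treatment at 37C. Same-well CellTiter-Glo luminescence served as the cell viability measure.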
# [9] = biological target: Progesterone receptor (Homo sapiens) (UniProt P06401); test: qHTS assay to identify small molecule agonists of the progesterone receptor (PR) signaling pathway (AID 1346784; calls by dose curve; note: nearly all actives have a fitted effect of over 30% in size); details: PR-UAS-bla HEK293T, beta-lactamase FRET ratio, 16 h; activation: at 92.4 µM (top of the series) unless noted
# Summary of the method: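 Using charcoal-stripped serum (2%) to limit endogenous steroids, PR-UAS-bla HEK 293T cells received compounds for 16 hr at 37C after 6 hr plating; beta-lactamase FRET fluorescence was recorded following 2 hr substrate loading at room temperature.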
# [10] = qHTS assay to identify small molecule agonists of the androgen receptor (AR) signaling pathway in the presence of an antagonist - cell viability counter screen (AID 1259379);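 note: MDA-kb2 human breast cancer cells carrying an MMTV luciferase reporter; nearly all actives have a fitted effect of over 25% in size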
# Summary of the method: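 In MDA-kb2 cells (human breast carcinoma, MMTV-luciferase), compounds at 15 concentrations plus 3.0uM nilutamide; 16 hr, 37C, 0% CO2; CellTiter-Fluor fluorescence read for viability.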
# [11] = A CellTox Green Cytotoxicity Assay to monitor cytotoxicity in HEK293 cells - 32 hour (AID 1224881); note: nearly all actives have a fitted effect of over 40% in size
# Summary of the method: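 Each value comes from one timepoint of a single continuous run in which HEK293 cells with CellTox Green were exposed to compound for up to 40 h at 37 C, dye fluorescence rising with cell death.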
# [12] = qHTS assay to identify small molecule phospholipidosis (PLD) inducers (AID 1259344; active = well fitted curve in the direction sought with a large enough effect; inconclusive = small, poorly fitted or top-dose-only effect, or another doubt; inactive = no such curve, though single readings can be large; an effect the other way counts as inactive or inconclusive); details: HepG2 phospholipidosis, LipidTOX Red imaging, 24 h; PLD induction: at 38.3 µM (top of the series) unless noted
# Summary of the method: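 HepG2 cells on collagen I, attached 4 h at 37 C, were co-treated with compound and LipidTOX Red dye for 24 h at 37 C, then fixed with paraformaldehyde plus Hoechst 33342 and imaged by high-content microscopy for phospholipid accumulation.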
# % is set by controls: 0 for no effect and ±100 for the full control effect; tags give direction and shape of the fitted curve or compound fluorescence and quenching.
# UniProt Q96RI1, sequence (Q96RI1 whole entry, looked up): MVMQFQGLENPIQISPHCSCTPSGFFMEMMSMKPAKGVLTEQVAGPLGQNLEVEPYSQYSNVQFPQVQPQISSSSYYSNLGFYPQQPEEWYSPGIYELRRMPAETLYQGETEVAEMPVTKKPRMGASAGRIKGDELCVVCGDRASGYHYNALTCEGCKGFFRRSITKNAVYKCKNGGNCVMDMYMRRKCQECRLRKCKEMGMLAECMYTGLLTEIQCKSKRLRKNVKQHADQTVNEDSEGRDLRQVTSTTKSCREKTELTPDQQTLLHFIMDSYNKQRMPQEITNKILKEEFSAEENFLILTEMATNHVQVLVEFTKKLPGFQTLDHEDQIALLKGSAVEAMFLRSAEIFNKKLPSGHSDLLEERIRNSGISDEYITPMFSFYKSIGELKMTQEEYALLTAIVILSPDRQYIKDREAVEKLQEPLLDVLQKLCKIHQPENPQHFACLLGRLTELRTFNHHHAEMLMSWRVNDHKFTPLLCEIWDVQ
# UniProt P16473, sequence (P16473 whole entry, looked up): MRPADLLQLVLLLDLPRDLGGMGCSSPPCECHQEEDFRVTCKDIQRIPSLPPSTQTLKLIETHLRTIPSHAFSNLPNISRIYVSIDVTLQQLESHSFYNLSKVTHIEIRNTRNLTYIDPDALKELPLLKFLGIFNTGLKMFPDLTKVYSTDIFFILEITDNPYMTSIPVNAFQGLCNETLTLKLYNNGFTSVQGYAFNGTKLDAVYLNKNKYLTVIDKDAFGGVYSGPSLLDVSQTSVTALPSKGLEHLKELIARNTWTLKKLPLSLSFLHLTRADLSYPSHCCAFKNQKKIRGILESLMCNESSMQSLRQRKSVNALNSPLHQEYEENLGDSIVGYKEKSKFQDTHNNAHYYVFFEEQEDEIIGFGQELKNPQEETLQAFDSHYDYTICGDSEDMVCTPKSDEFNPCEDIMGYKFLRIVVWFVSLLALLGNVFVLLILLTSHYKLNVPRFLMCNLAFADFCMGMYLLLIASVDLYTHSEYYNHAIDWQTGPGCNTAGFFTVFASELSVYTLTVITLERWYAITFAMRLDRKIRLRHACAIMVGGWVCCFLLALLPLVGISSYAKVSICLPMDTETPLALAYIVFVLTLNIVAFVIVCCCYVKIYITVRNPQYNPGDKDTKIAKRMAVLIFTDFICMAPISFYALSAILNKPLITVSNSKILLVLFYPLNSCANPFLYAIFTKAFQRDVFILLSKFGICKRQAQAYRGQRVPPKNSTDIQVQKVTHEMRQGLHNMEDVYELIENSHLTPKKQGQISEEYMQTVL
# UniProt P06401, sequence (P06401 whole entry, looked up): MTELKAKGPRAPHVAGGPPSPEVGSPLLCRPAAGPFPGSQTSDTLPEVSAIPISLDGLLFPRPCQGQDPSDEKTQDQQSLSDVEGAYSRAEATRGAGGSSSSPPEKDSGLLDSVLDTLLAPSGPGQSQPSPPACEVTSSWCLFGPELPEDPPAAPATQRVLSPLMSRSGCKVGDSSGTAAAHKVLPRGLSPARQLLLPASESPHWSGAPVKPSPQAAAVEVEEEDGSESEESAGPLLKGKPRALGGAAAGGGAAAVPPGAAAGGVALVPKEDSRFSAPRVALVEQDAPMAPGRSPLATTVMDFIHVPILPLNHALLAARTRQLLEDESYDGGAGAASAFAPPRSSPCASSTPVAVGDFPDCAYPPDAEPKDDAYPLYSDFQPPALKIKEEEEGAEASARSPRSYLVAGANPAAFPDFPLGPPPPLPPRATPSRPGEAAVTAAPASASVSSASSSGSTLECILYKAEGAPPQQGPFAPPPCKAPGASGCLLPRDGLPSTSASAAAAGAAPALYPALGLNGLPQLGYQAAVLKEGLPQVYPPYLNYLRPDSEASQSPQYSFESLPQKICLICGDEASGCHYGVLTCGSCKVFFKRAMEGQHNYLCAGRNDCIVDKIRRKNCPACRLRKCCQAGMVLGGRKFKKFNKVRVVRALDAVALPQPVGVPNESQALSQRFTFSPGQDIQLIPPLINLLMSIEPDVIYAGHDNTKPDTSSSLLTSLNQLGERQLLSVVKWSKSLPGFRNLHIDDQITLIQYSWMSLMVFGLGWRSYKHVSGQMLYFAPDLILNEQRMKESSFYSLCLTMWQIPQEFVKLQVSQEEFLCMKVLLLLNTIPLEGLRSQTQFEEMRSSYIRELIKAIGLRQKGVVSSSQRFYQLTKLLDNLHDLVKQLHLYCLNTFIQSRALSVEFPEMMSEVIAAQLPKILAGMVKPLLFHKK
smiles,measurement,setting,value
C/C=C/C=C/CO,Potency,[1],inactive
same,Potency,[2],inactive
same,Potency,[3],inactive
CC(=O)c1ccc(O)c(C(N)=O)c1,Potency,[4],inactive
Cc1onc(-c2c(Cl)cccc2Cl)c1C(=O)Cl,Potency,[2],inactive
CCCCc1nc(Cl)c(CO)n1Cc1ccc(-c2ccccc2-c2nn[nH]n2)cc1,Potency,[5],"inconclusive [cytotoxic, full curve, poor fit]"
same,Potency,[6],inactive
O=C(O)CCSCCC(=O)O,Potency,[7],inactive
same,Potency,[8],inactive
same,Potency,[9],inactive
NC(CS)C(=O)O (stereo not drawn),Potency,[10],inactive
CCOc1ccc(NC(=O)OC(C)C)cc1OCC,Potency,[5],inactive
CCCCCCCCCCCCCCCCN(C)C,Potency,[6],"inconclusive [activator, partial curve, poor fit]"
same,"activity change, negative = cytotoxicity",[8],inactive: 6.11% [at 8.39 µM]
NC(=O)N1c2ccccc2CC(=O)c2ccccc21,Potency,[11],inactive
Cc1ccccc1C(N)=O,Potency,[10],inactive
COc1ccc(Cc2cnc(N)nc2N)cc1OC,Potency,[5],inactive
same,Potency,[12],inactive
